Measured values from PubChem BioAssay AID485281 (National Center for Advancing Translational Sciences (NCATS), 2010).
Screen size: about 350,000 compounds; about 260 (0.074%) were called active. This list was built around the results that the source calls inconclusive (neither active nor inactive); the mix of calls is not that of the screen. Calls follow the shape of the dose curve; as a rule, active = well fitted inhibition curve with a large enough effect; inconclusive = small, poorly fitted or top-dose-only effect; inactive = no such curve, though single readings can be large or run the other way. Where the call is inconclusive, the potency comes from a doubtful curve fit.

target: Ferritin light chain (Equus caballus) (UniProt P02791); assay: qHTS Assay for Identification of Novel General Anesthetics; conditions: apoferritin/1-aminoanthracene competitive binding, fluorescence; activity change, negative = displacement: at 77.5 µM (top of the series); also: nearly all actives have a fitted effect of over 20% in size
UniProt P02791, sequence (P02791 whole entry, looked up): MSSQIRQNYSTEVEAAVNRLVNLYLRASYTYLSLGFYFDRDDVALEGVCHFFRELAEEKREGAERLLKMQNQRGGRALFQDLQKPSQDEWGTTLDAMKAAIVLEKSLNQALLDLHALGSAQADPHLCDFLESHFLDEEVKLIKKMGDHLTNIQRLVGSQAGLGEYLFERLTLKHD
How it was run: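 Horse-spleen apoferritin (10 uM) was mixed with 50% saturated 1-aminoanthracene in PBS, exposed to compounds for 10 min at room temperature, and read for fluorescence (ex 380 nm, em 535 nm). Competitive displacement was fitted with a four-parameter Hill equation.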
% is scaled to controls: 0 for no effect and ±100 for the full control effect; potency is read from the fitted curve at half-maximal effect; tags tell the direction and shape of the fitted curve.

SMILES	Potency	activity change, negative = displacement
CSCC(=O)N1CCCC(C(=O)c2cc(F)ccc2F)C1 (centres undefined)	inconclusive: 20 µM [inhibitor, partial curve]	–
COc1ccc(Cn2cc(C(=O)c3ccc(OC)cc3)c(=O)c3cc4c(cc32)OCCO4)cc1	inconclusive: 10 µM [inhibitor, partial curve]	–
Oc1ccc(-c2nc3ncccn3c2Nc2ccc3c(c2)OCCO3)cc1	–	inactive: -2.35%
Cc1cc(C)c(C(=O)/C=C/c2ccc(C(C)C)cc2)c(=O)[nH]1	inconclusive: 35.5 µM [inhibitor, partial curve]	–
N#Cc1ccc2c(c1)C[C@]1(c3ccsc3)Oc3c(c(=O)oc4ccc(F)cc34)C2O1	inconclusive: 6.31 µM [inhibitor, single point]	–
COc1cc(-c2nnc(COc3ccc(Cl)cc3C)o2)cc(OC)c1OC	–	inactive: 8.91%
Cc1ccc2oc(-c3ccccc3)c(C(=O)O)c(=O)c2c1	inconclusive: 31.6 µM [inhibitor, partial curve]	–
COc1ccc(C(=O)COC(=O)CCN2C(=O)C3C4C=CC(C5CC45)C3C2=O)cc1 (centres undefined)	inconclusive: 28.2 µM [inhibitor, partial curve]	–
Cc1ccc(NC(=O)C2C3C=CC4(O3)C2C(=O)N(CCCN2CCOCC2)C4C(=O)NC2CCCCC2)cc1Cl (centres undefined)	–	inactive: -10.5%
CCN(CC)c1ccc2cc(C(=O)Nc3cccnc3N3CCOCC3)c(=O)oc2c1	–	inactive: -4.77%
Cc1ccc(C(=O)COC(=O)c2ccc(O)cc2)cc1	inconclusive: 31.6 µM [inhibitor, single point]	–
COc1cccc(CCNC(=O)C2CCC(=O)N(Cc3cccc(OC)c3)C2)c1 (centres undefined)	–	inactive: -1.5%
CCCCCn1c(NCc2ccccc2OC)nc2ccccc21	inconclusive: 35.5 µM [inhibitor, single point]	–
CC1(C)Oc2ccc3ccc(=O)oc3c2/C(=C/Nc2ccccn2)C1=O	inconclusive: 3.55 µM [inhibitor, single point]	–
O=C(N/N=C/c1cc(Cl)ccc1O)c1ccccc1Br	inconclusive: 28.2 µM [inhibitor, partial curve]	–
CCOC(=O)c1[nH]c2cc3c(cc2c1NC(=O)CN1CCCCC1C)OCO3 (centres undefined)	inconclusive: 39.8 µM [inhibitor, single point]	–
O=S(=O)(/C=C/c1ccccc1)NC1CCCCCC1	inconclusive: 14.1 µM [inhibitor, partial curve]	–
CC(=O)c1cccc(NC(=O)CCc2c(C)nc3c(-c4ccc(F)cc4)c(C)nn3c2C)c1	–	inactive: -9.5%
O=C(Nc1ccc(F)cc1)c1ccc(Br)c(S(=O)(=O)N2CCOCC2)c1	–	inactive: 6.71%
